Experimental data published in ChEMBL document CHEMBL1201862, “PubChem BioAssay data set” (2004).
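Five concentrations, 48 hours, 96-well plates. The concentration for 50% growth inhibition is given as GI50.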 Calls of active or inactive are those of the source. Cut-off read from the data, not from the text of the source: active = GI50 up to about 1.1 µM and inactive = higher.

How the values were obtained:
Experiment in all cases: growth of human tumour cells (NCI), 48 h
786-0 = test system: 786-0
A498 = test system: A498
A549 = test system: A549
ACHN = test system: ACHN
CAKI-1 = test system: CAKI-1
DU-145 = test system: DU-145
EKVX = test system: EKVX
HCC 2998 = test system: HCC 2998
HCT-15 = test system: HCT-15
HL-60 = test system: HL-60
HOP-18 = test system: HOP-18
HOP-62 = test system: HOP-62
HOP-92 = test system: HOP-92
Hs-578T = test system: Hs-578T
IGROV-1 = test system: IGROV-1
K562 = test system: K562
KM-20L2 = test system: KM-20L2
LOX IMVI = test system: LOX IMVI
LXFL 529 = test system: LXFL 529
MCF7 = test system: MCF7
MDA-MB-231 = test system: MDA-MB-231
MDA-MB-435 = test system: MDA-MB-435
MOLT-4 = test system: MOLT-4
Malme-3M = test system: Malme-3M
NCI-H226 = test system: NCI-H226
NCI-H460 = test system: NCI-H460
NCI/ADR-RES = test system: NCI/ADR-RES
OVCAR-3 = test system: OVCAR-3
OVCAR-4 = test system: OVCAR-4
OVCAR-5 = test system: OVCAR-5
OVCAR-8 = test system: OVCAR-8
PC-3 = test system: PC-3
RPMI-8226 = test system: RPMI-8226
SF-268 = test system: SF-268
SF-539 = test system: SF-539
SK-MEL-28 = test system: SK-MEL-28
SN12C = test system: SN12C
SNB-75 = test system: SNB-75
SR = test system: SR
SW-620 = test system: SW-620
T47D = test system: T47D
TK-10 = test system: TK-10
U-251 = test system: U-251
UACC-257 = test system: UACC-257
UACC-62 = test system: UACC-62
UO-31 = test system: UO-31

Measured: GI50

COc1cc2c(c(OC)c1OC)-c1ccc(OC)c(=O)cc1[C@@H](N)CC2 [CITOSTAL]
active: 786-0 = 124 nM | A498 = 33.6 nM | A549 = 27.4 nM | ACHN 65 nM | CAKI-1 = 73.5 nM | DU-145 = 19.1 nM | HCC 2998 = 29.6 nM | HL-60 = 39.5 nM | HOP-62 = 34 nM | HOP-92 = 58.2 nM | Hs-578T 19.3 nM | IGROV-1 = 55.9 nM | K562 = 12.1 nM | KM-20L2 = 11.7 nM | LOX IMVI 30.6 nM | LXFL 529 = 37.2 nM | MCF7 = 55.6 nM | MDA-MB-231 = 17.9 nM | MDA-MB-435 = 11 nM | MOLT-4 = 31.7 nM | Malme-3M 41.9 nM | NCI-H226 = 100 nM | NCI-H460 = 18.9 nM | NCI/ADR-RES 206 nM | OVCAR-3 = 14.3 nM | OVCAR-5 = 431 nM | OVCAR-8 = 32.3 nM | PC-3 = 23.2 nM | RPMI-8226 = 99.3 nM | SF-268 = 34.7 nM | SF-539 = 15.9 nM | SN12C 45.4 nM | SNB-75 = 16 nM | SW-620 = 16.6 nM | U-251 = 22.9 nM | UACC-257 = 427 nM | UACC-62 = 15.7 nM | UO-31 = 796 nM
inactive: EKVX 1320 nM | HOP-18 = 53800 nM | OVCAR-4 = 11900 nM | SK-MEL-28 = 2420 nM | SR 1230 nM | T47D > 100000 nM | TK-10 = 2590 nM
44.9 nM: HCT-15
